# Measured values taken from the supplement of paper PMC8728848.
# This is one part of the list.
# Legend:
# Assay in all cases: glycan array binding signal (z-score within array); higher = stronger binding
# Details in all cases: glycan notation: IUPAC condensed, linker removed
# [1] = molecular target: Fuc(a1-2)Gal(b1-4)GlcNAc(b1-3)Gal(b1-4)GlcNAc(b1-2)Man(a1-3)[Fuc(a1-2)Gal(b1-4)GlcNAc(b1-3)Gal(b1-4)GlcNAc(b1-2)Man(a1-6)]Man(b1-4)GlcNAc(b1-4)GlcNAc
# In short: (§1)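 Glycan array data were curated from 3228 arrays in the Consortium for Functional Glycomics database and kept only where the protein sequence was available. Glycan names were converted to IUPAC-condensed notation, and columns mapping to the same glycan were averaged. The binding signal is a within-array Z-score, averaged across arrays of the same protein sequence at different concentrations or buffers and across linkers. Negative Z-scores can be read as non-binding.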
# [2] = molecular target: Fuc(a1-2)Gal(b1-4)GlcNAc(b1-3)Gal(b1-4)GlcNAc(b1-3)Gal(b1-4)GlcNAc
# In short: as §1
# [3] = molecular target: Fuc(a1-2)Gal(b1-4)GlcNAc(b1-3)GalNAc
# In short: as §1
# [4] = molecular target: Fuc(a1-2)Gal(b1-4)GlcNAc(b1-3)[Fuc(a1-2)Gal(b1-4)GlcNAc(b1-6)]GalNAc
# In short: as §1
# [5] = molecular target: Fuc(a1-2)Gal(b1-4)GlcNAc(b1-3)[Fuc(a1-3)[Gal(b1-4)]GlcNAc(b1-6)]Gal(b1-4)Glc
# In short: as §1
# [6] = molecular target: Fuc(a1-2)Gal(b1-4)GlcNAc(b1-6)GalNAc
# In short: as §1
# [7] = molecular target: Fuc(a1-2)Gal(b1-4)GlcNAc6S
# In short: as §1
# [8] = molecular target: Fuc(a1-2)Gal(b1-4)[Fuc(a1-3)]GlcNAc
# In short: as §1
# [9] = molecular target: Fuc(a1-2)Gal(b1-4)[Fuc(a1-3)]GlcNAc(b1-2)Man(a1-3)[Fuc(a1-2)Gal(b1-4)[Fuc(a1-3)]GlcNAc(b1-2)Man(a1-6)]Man(b1-4)GlcNAc(b1-4)[Fuc(a1-6)]GlcNAc
# In short: as §1
# [10] = molecular target: Fuc(a1-2)Gal(b1-4)[Fuc(a1-3)]GlcNAc(b1-2)[Fuc(a1-2)Gal(b1-4)[Fuc(a1-3)]GlcNAc(b1-4)]Man(a1-3)[Fuc(a1-2)Gal(b1-4)[Fuc(a1-3)]GlcNAc(b1-2)Man(a1-6)]Man(b1-4)GlcNAc(b1-4)GlcNAc
# In short: as §1
# [11] = molecular target: Fuc(a1-2)Gal(b1-4)[Fuc(a1-3)]GlcNAc(b1-3)Gal(b1-4)[Fuc(a1-3)]GlcNAc
# In short: as §1
# [12] = molecular target: Fuc(a1-2)Gal(b1-4)[Fuc(a1-3)]GlcNAc(b1-3)Gal(b1-4)[Fuc(a1-3)]GlcNAc(b1-3)Gal(b1-4)[Fuc(a1-3)]GlcNAc
# In short: as §1
# [13] = molecular target: Fuc(a1-2)Gal(b1-4)[Fuc(a1-3)]GlcNAc(b1-3)GalNAc
# In short: as §1
# [14] = molecular target: Fuc(a1-2)Gal(b1-4)[Fuc(a1-3)]GlcNAc(b1-3)[Neu5Ac(a2-6)Gal(b1-4)GlcNAc(b1-6)]Gal(b1-4)Glc
# In short: as §1
# [15] = molecular target: Fuc(a1-2)Gal3S(b1-4)GlcNAc
# In short: as §1
# [16] = molecular target: Fuc(a1-2)Gal6S(b1-3)GlcNAc
# In short: as §1
# [17] = molecular target: Fuc(a1-2)Gal6S(b1-3)GlcNAc6S
# In short: as §1
# Fuc(a1-2)Gal6S(b1-4)Glc = molecular target: Fuc(a1-2)Gal6S(b1-4)Glc
# In short: as §1
# [18] = molecular target: Fuc(a1-2)Gal6S(b1-4)Glc6S
# In short: as §1
# Fuc(a1-2)[Gal(a1-3)]Gal = molecular target: Fuc(a1-2)[Gal(a1-3)]Gal
# In short: as §1
# [19] = molecular target: Fuc(a1-2)[Gal(a1-3)]Gal(b1-3)GalNAc
# In short: as §1
# [20] = molecular target: Fuc(a1-2)[Gal(a1-3)]Gal(b1-3)GalNAc(b1-3)Gal(a1-4)Gal(b1-4)Glc
# In short: as §1
# [21] = molecular target: Fuc(a1-2)[Gal(a1-3)]Gal(b1-3)GlcNAc
# In short: as §1
# [22] = molecular target: Fuc(a1-2)[Gal(a1-3)]Gal(b1-3)GlcNAc(b1-2)Man(a1-3)[Fuc(a1-2)[Gal(a1-3)]Gal(b1-3)GlcNAc(b1-2)Man(a1-6)]Man(b1-4)GlcNAc(b1-4)GlcNAc
# In short: as §1
# [23] = molecular target: Fuc(a1-2)[Gal(a1-3)]Gal(b1-3)GlcNAc(b1-2)Man(a1-3)[Fuc(a1-2)[Gal(a1-3)]Gal(b1-3)GlcNAc(b1-2)Man(a1-6)]Man(b1-4)GlcNAc(b1-4)[Fuc(a1-6)]GlcNAc
# In short: as §1
# [24] = molecular target: Fuc(a1-2)[Gal(a1-3)]Gal(b1-3)GlcNAc(b1-3)GalNAc
# In short: as §1
# [25] = molecular target: Fuc(a1-2)[Gal(a1-3)]Gal(b1-3)GlcNAc(b1-6)GalNAc
# In short: as §1
# [26] = molecular target: Fuc(a1-2)[Gal(a1-3)]Gal(b1-4)Glc
# In short: as §1
# [27] = molecular target: Fuc(a1-2)[Gal(a1-3)]Gal(b1-4)GlcNAc
# In short: as §1
# [28] = molecular target: Fuc(a1-2)[Gal(a1-3)]Gal(b1-4)GlcNAc(b1-2)Man
# In short: as §1
# [29] = molecular target: Fuc(a1-2)[Gal(a1-3)]Gal(b1-4)GlcNAc(b1-2)Man(a1-3)[Fuc(a1-2)[Gal(a1-3)]Gal(b1-4)GlcNAc(b1-2)Man(a1-6)]Man(b1-4)GlcNAc(b1-4)GlcNAc
# In short: as §1
# [30] = molecular target: Fuc(a1-2)[Gal(a1-3)]Gal(b1-4)GlcNAc(b1-2)Man(a1-3)[Fuc(a1-2)[Gal(a1-3)]Gal(b1-4)GlcNAc(b1-2)Man(a1-6)]Man(b1-4)GlcNAc(b1-4)[Fuc(a1-6)]GlcNAc
# In short: as §1
# [31] = molecular target: Fuc(a1-2)[Gal(a1-3)]Gal(b1-4)GlcNAc(b1-3)GalNAc
# In short: as §1
# [32] = molecular target: Fuc(a1-2)[Gal(a1-3)]Gal(b1-4)GlcNAc(b1-3)[Fuc(a1-2)[Gal(a1-3)]Gal(b1-4)GlcNAc(b1-6)]GalNAc
# In short: as §1
# [33] = molecular target: Fuc(a1-2)[Gal(a1-3)]Gal(b1-4)GlcNAc(b1-6)GalNAc
# In short: as §1
# [34] = molecular target: Fuc(a1-2)[Gal(a1-3)]Gal(b1-4)[Fuc(a1-3)]Glc
# In short: as §1
# [35] = molecular target: Fuc(a1-2)[Gal(a1-3)]Gal(b1-4)[Fuc(a1-3)]GlcNAc
# In short: as §1
binder,measurement,setting,value
"Apa (Mycobacterium tuberculosis), Rv1860 (protein) MHQVDPNLTRRKGRLAALAIAAMASASLVTVAVPATANADPEPAPPVPTTAASPPSTAAAPPAPATPVAPPPPAAANTPNAQPGDPNAAPPPADPNAPPPPVIAPNAPQPVRIDNPVGGFSFALPAGWVESDAAHFDYGSALLSKTTGDPPFPGQPPPVANDTRIVLGRLDQKLYASAEATDSKAAARLGSDMGEFYMPYPGTRINQETVSLDANGVSGSASYYEVKFSDPSKPNGQIWTGVIGSPAANAPDAGPPQRWFVVWLGTANNPVDKGAAKALAESIRPLVAPPPAPAPAPAEPAPAPAPAGEVAPTPTTPTPQRTLPA",glycan array binding signal (z-score),[1],-0.029
same,glycan array binding signal (z-score),[2],-0.516
same,glycan array binding signal (z-score),[3],-0.184
same,glycan array binding signal (z-score),[4],-0.126
same,glycan array binding signal (z-score),[5],-0.126
same,glycan array binding signal (z-score),[6],-0.114
same,glycan array binding signal (z-score),[7],-0.46
same,glycan array binding signal (z-score),[8],-0.382
same,glycan array binding signal (z-score),[9],0.23
same,glycan array binding signal (z-score),[10],0.27
same,glycan array binding signal (z-score),[11],-0.731
same,glycan array binding signal (z-score),[12],-0.053
same,glycan array binding signal (z-score),[13],0.513
same,glycan array binding signal (z-score),[14],-0.152
same,glycan array binding signal (z-score),[15],0.043
same,glycan array binding signal (z-score),[16],1.81
same,glycan array binding signal (z-score),[17],2.87
same,glycan array binding signal (z-score),Fuc(a1-2)Gal6S(b1-4)Glc,-0.257
same,glycan array binding signal (z-score),[18],1.9
same,glycan array binding signal (z-score),Fuc(a1-2)[Gal(a1-3)]Gal,-0.142
same,glycan array binding signal (z-score),[19],0.254
same,glycan array binding signal (z-score),[20],-0.198
same,glycan array binding signal (z-score),[21],-0.446
same,glycan array binding signal (z-score),[22],-0.163
same,glycan array binding signal (z-score),[23],0.338
same,glycan array binding signal (z-score),[24],-0.098
same,glycan array binding signal (z-score),[25],-0.428
same,glycan array binding signal (z-score),[26],0.178
same,glycan array binding signal (z-score),[27],-0.623
same,glycan array binding signal (z-score),[28],-0.105
same,glycan array binding signal (z-score),[29],-0.306
same,glycan array binding signal (z-score),[30],-0.067
same,glycan array binding signal (z-score),[31],-0.203
same,glycan array binding signal (z-score),[32],0.651
same,glycan array binding signal (z-score),[33],1.6
same,glycan array binding signal (z-score),[34],-0.318
same,glycan array binding signal (z-score),[35],0.273
